# Laboratory results: PubChem BioAssay AID686978 (National Center for Advancing Translational Sciences (NCATS), 2013)
# Hit rate of the full screen: of about 420,000 compounds, about 64,000 (15%) were called active. The shares of active, inactive and inconclusive entries below differ from those in the screen. Calls come from the whole dose curve; as a rule, active = well fitted inhibition curve with a large enough effect; inconclusive = small, poorly fitted or top-dose-only effect; inactive = flat fitted curve, though single readings scatter. No potency is given beside an inconclusive call; the fits are too rough.
# Experiment: qHTS for Inhibitors of human tyrosyl-DNA phosphodiesterase 1 (TDP1): qHTS in cells in absence of CPT; note: nearly all actives have a fitted effect of over 55% in size
# Settings: DT40 Tdp1-/- hTDP1 cells, no CPT, ATP luminescence, 48 h; activity change, negative = growth inhibition: at 46.2 µM (top of the series)
# Summary of the method: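 Camptothecin absent (DMSO only). Human TDP1-complemented DT40 knockout cells, 400 cells/well, 37 °C for minimum 48 hr; ATP measured via CellTiter-Glo, 30 min dark incubation, luminescence.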
# % is set by controls: 0 for no effect and ±100 for the full control effect; potency is the fitted concentration of half-maximal effect; tags give direction and shape of the fitted curve.
SMILES,Potency,"activity change, negative = growth inhibition"
COC(=O)C(C)NC(=O)C(C)NC(=O)OCc1ccccc1 (centres undefined),"inconclusive [inhibitor, partial curve, poor fit]",
Cc1ncc(CN2CCCC(C(=O)Nc3ccc(-c4cccc(F)c4)cc3)C2)cn1 (centres undefined),"inconclusive [inhibitor, single point]",
CC1=CC=CN2C1=NC(=O)CC2(C)C(=O)N(CC(=O)NC1CCCC1)c1cc(C)cc(C)c1 (centres undefined),,inactive: 1.45%
CC(=O)Nc1ccccc1OC(C)C(=O)N1CCC(C)CC1 (centres undefined),"inconclusive [inhibitor, partial curve]",
CC(C)(C)CN1CCNC(=O)C1CC(=O)NCCc1ccccc1F (centres undefined),,inconclusive: -9.09% [inhibitor]
O=C(Cn1c(COc2ccccc2)nc2ccccc21)Nc1cc(Cl)ccc1Cl,"inconclusive [inhibitor, single point]",
COC(=O)Cn1cnc2scc(-c3ccc(C)c(C)c3)c2c1=O,"inconclusive [inhibitor, single point]",
COc1ccc(-n2c(=O)c(C)nc3cnc(N4CCNCC4)nc32)cc1,,inactive: -4.52%
COc1ccc(CCn2c(N)c(S(=O)(=O)c3cccs3)c3nc4ccccc4nc32)cc1OC,"inconclusive [inhibitor, single point]",
Cc1cc(O)c(C(=O)/C=C/c2ccccc2Br)c(=O)o1,"inconclusive [inhibitor, single point]",
NS(=O)(=O)c1ccc(NC(=O)CSc2ncnc3ccccc23)cc1,"inconclusive [inhibitor, partial curve, poor fit]",
COCCN(CCOC)C(=O)c1ccc(NS(=O)(=O)c2ccc3c(c2)OCCO3)cc1,,inactive: 0.645%
Cc1ccccc1CNC(=O)c1cc2cccc3c2n1CC(C)S3 (centres undefined),"inconclusive [inhibitor, single point]",
CCOc1ccc(CN(C)C(=O)c2cc(S(=O)(=O)N3CCCC3)ccc2C)cc1,"inconclusive [inhibitor, single point]",
COc1ccc(N2CCN(C(=O)CC(NC(N)=O)c3cccc(Oc4ccccc4)c3)CC2)cc1 (centres undefined),"inconclusive [inhibitor, single point]",
O=C(COC(=O)CNC(=O)c1ccc([N+](=O)[O-])o1)Nc1ncc(C(F)(F)F)cc1Cl,"inconclusive [inhibitor, single point]",
CC(C)(C)c1nc(SCC(=O)NCc2ccco2)c2ccccc2n1,"inconclusive [inhibitor, single point]",
Cc1ccc(NC(=O)Cn2cc(C(=O)c3ccco3)c3ccccc32)c(C)c1,"inconclusive [inhibitor, partial curve]",
COc1ccc(CCNC(=O)CCCOc2cccc(C)c2C)cc1OC,"inconclusive [inhibitor, single point]",
O=C(NCC1CCCO1)c1cc(-c2ccccc2)on1 (centres undefined),"inconclusive [inhibitor, partial curve]",
CN(C(=O)c1cccc(NC(=O)Cc2ccc(NC(=O)C3CCN(C(=O)C4CCCC4)CC3)cc2)c1)C1CCCC1,"inconclusive [inhibitor, single point]",
CCOc1ccc(Nc2cc(C)nc3ccc(C)cc23)cc1,"inconclusive [inhibitor, single point]",
CCOc1ccccc1OCCC(=O)Nc1ccc2c(c1)OCO2,"inconclusive [inhibitor, single point]",

SMILES,Potency,"activity change, negative = growth inhibition"
NS(=O)(=O)c1ccc(N2CCOCC2)c(C(=O)NCCCSc2ccccc2)c1,"inconclusive [inhibitor, single point]",
O=c1oc2ccccc2cc1NCc1ccccc1O,"inconclusive [inhibitor, single point]",
COc1ccccc1N1C(=O)C2C(C(=O)c3ccccc3)=NN(c3ccc(C)cc3)C2C1=O (centres undefined),"inconclusive [inhibitor, single point]",
c1ccc(CCCCc2ccncc2)cc1,,inactive: -6.32%
CCC(C)N(C(=O)Cn1nnc(-c2ccc(Cl)cc2)n1)C1CCS(=O)(=O)C1 (centres undefined),,inactive: 5.06%
Cc1c(NC(=O)Nc2ccc(Cl)c(C(F)(F)F)c2)c(=O)n(-c2ccccc2)n1C,,inactive: -20.9%
CCOC(=O)c1[nH]cnc1C(=O)NC1CCCCC1,,inactive: -10.9%
COCCN1CSC(=S)N(Cc2ccco2)C1,active: 4.61 µM,
NC(=O)C(=O)N/N=C/c1c(F)c(F)c(F)c(F)c1F,,inactive: -13.2%
CCOC(=O)CSc1nnc(-c2cccc(Br)c2)o1,,inactive: -1.45%
Fc1ccccc1N1CCN(c2ncnc3onc(-c4cccc(Cl)c4)c23)CC1,"inconclusive [inhibitor, single point]",
c1ccc(COc2ccccc2CNCc2cccnc2)cc1,"inconclusive [inhibitor, partial curve]",
Cc1ccc(C)c2c(SC(C)C(=O)NCc3ccco3)nc(-c3ccccc3)nc12 (centres undefined),,inconclusive: -33.9% [inhibitor]
CCN1C(Nc2ccccc2)=NC[C@@H]1CC(C)C,,inactive: 9.72%
CCOC(=O)CSc1nc2c(sc(=S)n2Cc2ccco2)c(=O)n1-c1ccccc1,"inconclusive [inhibitor, single point]",
O=C(CSc1nnc(SCc2ccccc2Cl)s1)N/N=C/c1ccc(C(=O)O)cc1,"inconclusive [inhibitor, single point]",
CCc1nn(-c2ccccc2)c(=S)c2ccccc12,"inconclusive [inhibitor, full curve, poor fit]",
COc1cccc(OCc2cc(=O)n3cc(C)sc3n2)c1,"inconclusive [inhibitor, partial curve, poor fit]",
Cc1cc(C)n(-c2nc(C)nc3c2cnn3-c2ccccc2)n1,,inactive: 2.54%
CC1=C(C#N)c2nc(N)c(C#N)c(C)c2/C1=C\c1ccc(OCC(=O)O)c(Cl)c1,"inconclusive [inhibitor, single point]",
O=C(CCSc1ccc(Cl)cc1)N1CCOCC1,"inconclusive [inhibitor, full curve, poor fit]",
Cc1ccc(NC(=O)CCCN2C(=O)C(c3ccccc3)Oc3cccnc32)c(C)c1 (centres undefined),,inactive: -26.2%
Cc1cc2c(c(=O)n1Cc1ccccn1)C(c1ccc3c(c1)OCO3)C(C#N)=C(N)O2 (centres undefined),"inconclusive [inhibitor, single point]",

SMILES,Potency,"activity change, negative = growth inhibition"
CCOC(=O)C1CCCN(C(=O)c2ccc3ncsc3c2)C1 (centres undefined),,inactive: -10.1%
Cc1cc(Sc2ccc([N+](=O)[O-])cn2)ccc1Br,"inconclusive [inhibitor, partial curve]",
Cc1ccc2nc(-c3cccc(Cl)c3)c(Cc3cccc(F)c3)n2c1,"inconclusive [inhibitor, single point]",
CCN(CC)C(=O)[C@H]1CC(CC(=O)NCCN2CCOCC2)C(=O)N2CCc3c([nH]c4ccccc34)[C@]12C (some centres undefined),,inactive: -5.51%
Cc1cccn2c(=O)cc(COc3ccc(NC(=O)C(C)Oc4ccccc4)cc3)nc12 (centres undefined),"inconclusive [inhibitor, partial curve, poor fit]",
COC(=O)C1=C(NC(=O)c2ccc(C)c(C)c2)CCS1,"inconclusive [inhibitor, single point]",
C=CCOc1ccc(/C=C2\SC(N)=NC2=O)cc1OC,,inactive: -19.1%
COC(=O)[C@]1(C)N[C@H](c2ccc(-c3cccc(Cl)c3)cc2)[C@@H]2C(=O)N(C)C(=O)[C@@H]21,"inconclusive [inhibitor, single point]",
CC(=O)c1sc(NC(=O)COc2ccc(C(C)C)c(C)c2)nc1C,"inconclusive [inhibitor, partial curve]",
N#CC(C(=O)c1ccc(S(=O)(=O)N2CCCCCC2)cc1)c1nc2ccccc2[nH]1 (centres undefined),"inconclusive [inhibitor, partial curve, poor fit]",
COc1ccc(N(CC(=O)Nc2cc(C)ccc2C)S(=O)(=O)c2c(C)nn(C)c2C)cc1,active: 25.9 µM,
CCCCNC(=O)c1cc(-c2ccc(Cl)c(Cl)c2)on1,,inactive: -18.6%
COc1ccc(CN(C)C(=O)CNC(=O)c2sc3ccccc3c2Cl)c(OC)c1OC,,inactive: -24.3%
Cn1nnnc1SCC(=O)Nc1ccc(Cl)c(S(=O)(=O)N2CCOCC2)c1,,inactive: -12%
CC(=O)N1CCC(N(CCN2CCOCC2)C(=S)Nc2cccc(C)c2)CC1,,inconclusive: -24.3% [inhibitor]
Cc1ccc(Cl)cc1-n1ncc2c(NCCC3=CCCCC3)ncnc21,"inconclusive [inhibitor, single point]",
NC(=O)NC(=O)COC(=O)c1ccc(OC(F)F)cc1,,inactive: -0.511%
CCCCc1nc2ccccc2c(=O)n1NC(=O)c1c(O)c2cccc3c2n(c1=O)CC3,"inconclusive [inhibitor, single point]",
COc1ccc(-n2c(SCC(=O)NC3CCCCC3)nc3c([nH]c4ccccc43)c2=O)cc1,active: 20.6 µM,
Cc1ccc(S(=O)(=O)N2CCN(C(=O)c3cccs3)CC2)cc1C,"inconclusive [inhibitor, partial curve]",
S=C(c1ccc(-c2cc(Cl)ccc2Cl)o1)N1CCCCC1,"inconclusive [inhibitor, single point]",
COc1cc(C=O)ccc1OCCCCOc1ccccc1[N+](=O)[O-],"inconclusive [inhibitor, single point]",
COc1ccc(N=C2SCC(c3ccc([N+](=O)[O-])cc3)=NN2CCO)cc1,"inconclusive [inhibitor, single point]",
